Experimental data taken from PubChem BioAssay (NCATS).
Several values for one entry are separate records, joined by “and”; a condition that tells them apart may be missing. Equal entries are not always repeated. The shares of active, inactive and inconclusive entries below differ from those in the screen. For part of these data: Where the call is inconclusive, the potency comes from a doubtful curve fit. Activity calls are given as the source filed them. Unless noted, calls follow the shape of the dose curve; as a rule, active = well fitted curve in the direction sought with a large enough effect; inconclusive = small, poorly fitted or top-dose-only effect, or another doubt; inactive = no such curve, though single readings can be large; an effect the other way counts as inactive or inconclusive.

How the values were obtained:
[1] = qHTS of pediatric cancer cell lines to identify multiple opportunities for drug repurposing: Primary screen for A673 cells (AID 1347092); conditions: A673 Ewing sarcoma viability, CellTiter-Glo ATP luminescence, 48 h; activity change, negative = cytotoxic: at 46 µM (top of the series); also: potency is read from the fitted curve at half-maximal effect; nearly all actives have a fitted effect of over 45% in size
In short: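 48 h compound exposure, A673, 500-1,000 cells/well, 37 degrees C/5% CO2. MIPE: 11-point, 0.78 nM-46 µM; NPC: 8-point, 0.59 nM-46 µM (final). Readout CellTiter-Glo luminescence after 15 min RT.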

[2] = qHTS of pediatric cancer cell lines to identify multiple opportunities for drug repurposing: Primary screen for BT-37 cells (AID 1347094); also: potency is read from the fitted curve at half-maximal effect;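 as to activity change, negative = cytotoxic: plate controls were DMSO for no effect and bortezomib for full effect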
In short: (§1)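 Phenotypic viability qHTS, 48 h compound exposure, CellTiter-Glo luminescence read-out; multi-concentration dosing so that potency and efficacy derive directly from the primary screen's curves.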

[3] = qHTS of pediatric cancer cell lines to identify multiple opportunities for drug repurposing: Primary screen for SK-N-SH cells (AID 1347098); conditions: SK-N-SH viability, CellTiter-Glo luminescence, 48 h; activity change, negative = cytotoxic: at 57 µM (top of the series); also: nearly all actives have a fitted effect of over 65% in size; also: potency is read from the fitted curve at half-maximal effect;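 as to activity change, negative = cytotoxic: DMSO served as neutral control and bortezomib at 2.3 µM as positive control; % is scaled to controls: 0 for no effect and ±100 for the full control effect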
In short: (§2)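 Cells (500-1,000/well) rested 5 h, then received compounds for 48 h; metabolically active cells were measured by CellTiter-Glo luminescence. Final concentrations spanned up to 46 µM (MIPE, 11-point) or 0.59 nM-46 µM (NPC, 8-point) in primary screens, 11-point in follow-ups.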

[4] = qHTS of pediatric cancer cell lines to identify multiple opportunities for drug repurposing: Primary screen for LAN-5 cells (AID 1347100); also: potency is read from the fitted curve at half-maximal effect
In short: as §2

[5] = qHTS of pediatric cancer cell lines to identify multiple opportunities for drug repurposing: Primary screen for BT-12 cells (AID 1347101); also: potency is read from the fitted curve at half-maximal effect; nearly all actives have a fitted effect of over 25% in size
In short: as §2

[6] = qHTS of pediatric cancer cell lines to identify multiple opportunities for drug repurposing: Primary screen for Rh41 cells (AID 1347108); also: nearly all actives have a fitted effect of over 70% in size; also: potency is read from the fitted curve at half-maximal effect;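 as to activity change, negative = cytotoxic: luminescence drop marks cytotoxic hits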
In short: as §1

[7] = A High-Content qHTS Against Drug Library for the Identification of Small Molecules that Inhibit DYT1 Early Onset Primary Dystonia-Associated Cell Pathology (AID 1645839; calls by dose curve; also: potency is read from the fitted curve at half-maximal effect)
In short: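 In this high-content image screen, delE TorsinA mislocalization in inducible Flp-In 293 cells is scored as %pathology, with cell count serving as the counterscreen. Compound exposure lasts 48 h under tetracycline induction in reduced-serum medium.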

[8] = target: Glutathione peroxidase 1 (Homo sapiens) (UniProt P07203); assay: Primary qHTS Assay for Inhibitors of Recombinant Selenoprotein Glutathione Peroxidase 1 (GPX1) (AID 1845191); conditions: activity, negative = inhibition: at 48.8 µM (top of the series); also: potency is read from the fitted curve at half-maximal effect; nearly all actives have a fitted effect of over 65% in size
In short: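 10 nM GPX1 + cpd, 30 min RT; start w/ 1 mM GSH, 0.5 mM cumene hydroperoxide, 0.5 mM NADPH, 100 nM GR, 0.01% BSA; buffer 50 mM Tris-HCl pH 7.5, 2 mM EDTA, 150 mM NaCl; Fl 340/450, 0 & 15 min.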

[9] = target: Phospholipid hydroperoxide glutathione peroxidase GPX4 (Homo sapiens) (UniProt P36969); assay: Primary qHTS Assay for Inhibitors of Recombinant Selenoprotein Glutathione Peroxidase 4 (GPX4) (AID 1845192); also: potency is read from the fitted curve at half-maximal effect; nearly all actives have a fitted effect of over 65% in size
In short: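 NADPH consumption, followed by fluorescence at 340/450 nm between 0 and 15 min, reports GPX4 activity via coupled glutathione reductase (100 nM). Enzyme 200 nM was pre-exposed to compound 30 min; 0.5 mM cumene hydroperoxide and 1 mM GSH served as substrates.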

[10] = tested on: CP335; assay: qHTS profiling for inhibitors of Plasmodium falciparum proliferation (AID 504749); also: nearly all actives have a fitted effect of over 60% in size; also: potency is read from the fitted curve at half-maximal effect;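 as to activity, negative = inhibition: 0% = DMSO vehicle and full inhibition = artemisinin control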; conditions: P. falciparum in erythrocytes, SYBR Green DNA, 72 h; series mostly up to 28.7 µM
In short: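 Three-day growth assay of blood-stage parasites in erythrocytes (0.3% parasitemia, 2.5% hematocrit) at 37 C, 5% CO2, quantified by SYBR Green DNA staining after overnight detergent lysis.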

[11] = Drug repurposing screens with cells derived from glioblastoma tumor samples (AID 1345199); conditions: GBM patient neurospheres viability, ATP luminescence, 48 h; Potency: tumour line A unless noted; activity, negative = cell killing: at 46 µM (top of the series), tumour line A unless noted; also: nearly all actives have a fitted effect of over 40% in size; also: potency is read from the fitted curve at half-maximal effect; as to activity, negative = cell killing: % is scaled to controls: 0 for no effect and ±100 for the full control effect
In short: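 Four patient lines of CD133+ GBM neurospheres were screened at several concentrations; hits were retested in those lines plus three slower-growing GBM lines, using 48-hour treatment and ATP-based viability.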

[12] = qHTS of pediatric cancer cell lines to identify multiple opportunities for drug repurposing: Primary screen for SK-N-MC cells (AID 1347093); conditions: SK-N-MC viability, CellTiter-Glo luminescence, 48 h; activity change, negative = cytotoxic: at 46 µM (top of the series); also: potency is read from the fitted curve at half-maximal effect
In short: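 Metabolically active cells were quantified by ATP-dependent luminescence (CellTiter-Glo, 15 min at room temperature) following 48 h treatment. Cells had been plated at 500-1,000 per well and settled for 5 h beforehand.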

[13] = qHTS of pediatric cancer cell lines to identify multiple opportunities for drug repurposing: Primary screen for OHS-50 cells (AID 1347103); also: nearly all actives have a fitted effect of over 40% in size; also: potency is read from the fitted curve at half-maximal effect;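 as to activity change, negative = cytotoxic: plate controls were DMSO neutral control for no effect and bortezomib positive control for full effect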
In short: as §2

[14] = Primary qHTS for small molecule stabilizers of the endoplasmic reticulum resident proteome: Secreted ER Calcium Modulated Protein (SERCaMP) assay (AID 1508630); conditions: SH-SY5Y GLuc-SERCaMP (Gaussia luciferase released on ER calcium loss) secretion, thapsigargin, luminescence; activity change, negative = inhibition: at 38.4 µM (top of the series); also: potency is read from the fitted curve at half-maximal effect
In short: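 GLuc-SERCaMP-expressing SH-SY5Y cells, pretreated 16 h with compound, are challenged with thapsigargin to empty ER calcium stores; after 4 h, coelenterazine is added directly to the medium and luminescence is imaged.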

[15] = tested on: WaGa; assay: qHTS assay to identify novel small-molecules to repurpose for Merkel cell carcinoma treatment (AID 1296009); conditions: MCC and control cell lines, CellTiter-Glo viability, 72 h; series mostly up to 46 µM; also: nearly all actives have a fitted effect of over 60% in size; also: potency is read from the fitted curve at half-maximal effect; as to activity change, negative = cytotoxicity: % is scaled to controls: 0 for no effect and ±100 for the full control effect
In short: (§3)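 After compound transfer in DMSO, plates were kept 72 hr at 37 degree celsius. Luminescent ATP signal from CellTiter-Glo served as viability measure, normalized against DMSO and no-cell controls.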

[16] = tested on: MKL-2; assay: as above; conditions: MCC and control cell lines, CellTiter-Glo viability, 72 h; activity change, negative = cytotoxicity: at 46 µM (top of the series)
In short: as §3

[17] = tested on: Es-2; assay: Primary qHTS to identify gynecologic anti-cancer compounds using libraries of approved drugs and bioactive compounds (AID 1345084); conditions: Gynecologic cancer cell panel viability, ATPlite luminescence, 48 h; series mostly up to 57.5 µM; also: potency is read from the fitted curve at half-maximal effect; nearly all actives have a fitted effect of over 55% in size
In short: (§4)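 ATP-based viability (ATPlite), 1,000 cells/well, 16 h pre-incubation, 48 h compound at 37 C, 5% CO2, 15 min RT before read.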

[18] = tested on: HeLa; assay: as above; conditions: Gynecologic cancer cell panel viability, ATPlite luminescence, 48 h; series mostly up to 57.5 µM
In short: as §4

[19] = tested on: Tov112D; assay: as above; conditions: Gynecologic cancer cell panel viability, ATPlite luminescence, 48 h; activity change, negative = cytotoxicity: at 57.5 µM (top of the series)
In short: as §4

[20] = target: Cytochrome P450 2C9 (Homo sapiens) (UniProt P11712); assay: Cytochrome P450 family 2 subfamily C member 9 (CYP2C9) small molecule antagonists: luciferase biochemical (cell-free) qHTS assay (AID 1645842; active = well fitted curve in the direction sought with a large enough effect in the repeat runs; inconclusive = weak or mixed curves; inactive = no such curve, though single readings can be large; an effect the other way counts as inactive or inconclusive; also: % is scaled to controls: 0 for no effect and ±100 for the full control effect; nearly all actives have a fitted effect of over 55% in size)
In short: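 Luminescence, after 20 min with luciferin detection reagent, reflected CYP2C9 turnover during a 1 h NADPH-driven reaction at 37C. Enzyme-substrate mix contained 0.4% bovine serum albumin and was preincubated with compound 10 min at room temperature.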
Tags tell the direction and shape of the fitted curve.

UniProt P36969, sequence (P36969 whole entry, looked up): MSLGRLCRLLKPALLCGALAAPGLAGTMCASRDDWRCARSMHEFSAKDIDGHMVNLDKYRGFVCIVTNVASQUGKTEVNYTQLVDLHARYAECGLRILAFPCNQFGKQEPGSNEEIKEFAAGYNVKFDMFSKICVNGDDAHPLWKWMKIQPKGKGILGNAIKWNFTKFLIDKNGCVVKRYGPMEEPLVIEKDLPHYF
UniProt P11712, sequence (P11712 whole entry, looked up): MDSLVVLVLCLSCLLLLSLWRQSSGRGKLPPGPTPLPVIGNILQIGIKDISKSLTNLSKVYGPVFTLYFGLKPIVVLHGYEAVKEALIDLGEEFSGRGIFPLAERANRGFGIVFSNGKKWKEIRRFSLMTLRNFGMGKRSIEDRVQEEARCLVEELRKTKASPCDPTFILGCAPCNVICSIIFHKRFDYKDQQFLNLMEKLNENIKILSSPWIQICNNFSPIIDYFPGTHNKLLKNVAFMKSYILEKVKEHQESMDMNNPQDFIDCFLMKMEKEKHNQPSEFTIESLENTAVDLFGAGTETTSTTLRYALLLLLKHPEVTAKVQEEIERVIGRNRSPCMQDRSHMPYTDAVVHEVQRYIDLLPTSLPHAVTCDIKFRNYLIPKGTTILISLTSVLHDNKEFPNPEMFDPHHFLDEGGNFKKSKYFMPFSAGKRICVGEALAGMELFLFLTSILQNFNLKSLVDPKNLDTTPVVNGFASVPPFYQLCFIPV
UniProt P07203, sequence (P07203 whole entry, looked up): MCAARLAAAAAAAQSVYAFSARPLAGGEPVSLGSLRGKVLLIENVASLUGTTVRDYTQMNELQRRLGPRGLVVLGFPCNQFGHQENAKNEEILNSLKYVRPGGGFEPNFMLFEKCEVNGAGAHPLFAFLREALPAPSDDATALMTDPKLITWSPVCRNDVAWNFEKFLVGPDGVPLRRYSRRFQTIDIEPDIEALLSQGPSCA

In the case of `COc1cc(C(=O)NS(=O)(=O)c2ccccc2C)ccc1Cc1cn(C)c2ccc(NC(=O)OC3CCCC3)cc12`, the Potency [1] is reported as active: 14.8 µM, the Potency [2] is reported as inconclusive: 43.2 µM [cytotoxic, single point] and the Potency [3] is reported as inconclusive: 15.2 µM [cytotoxic, partial curve]. The Potency [4] was inconclusive: 29.6 µM [cytotoxic, single point], the Potency [5] was inconclusive: 43.2 µM [cytotoxic, single point] and the Potency [6] was inconclusive: 33.2 µM [cytotoxic, single point]. For the same compound, the Potency [7] was inconclusive: 10 µM [inhibitor, partial curve, poor fit], the Potency [8] was inconclusive: 6.4 µM [inhibitor, full curve] and the Potency [9] was inconclusive: 806 nM [inhibitor, partial curve, poor fit] and active: 9.04 µM. The Potency [10] was inconclusive: 13.5 µM [inhibitor, partial curve, poor fit] and the activity, negative = cell killing [11] was inconclusive: -37.5% [inhibitor].

For `CCOC(=O)[C@@](C)(N)Cc1ccc(O)c(O)c1`, the Potency [1] was inconclusive: 33.5 µM [cytotoxic, single point], the Potency [12] was inconclusive: 29.9 µM [cytotoxic, single point] and the Potency [3] was inconclusive: 24.4 µM [cytotoxic, partial curve, poor fit]. The Potency [5] was inconclusive: 15.5 µM [cytotoxic, partial curve], the Potency [13] was inconclusive: 34.7 µM [cytotoxic, partial curve] and the Potency [6] was inconclusive: 29.9 µM [cytotoxic, single point]. For the same compound, the Potency [14] was inconclusive: 22.4 µM [inhibitor, single point] and the Potency [15] was inconclusive: 26.6 µM [inhibitor, single point].

With `O=C(OCC(O)CO)c1ccccc1Nc1ccnc2cc(Cl)ccc12` (stereo not given) the Potency [12] was inconclusive: 33.5 µM [cytotoxic, single point], the Potency [2] was inconclusive: 21.9 µM [cytotoxic, partial curve, poor fit] and the Potency [13] was inconclusive: 24.6 µM [cytotoxic, single point]. For the same compound, the Potency [6] was inconclusive: 15 µM [cytotoxic, single point], the Potency [7] was inconclusive: 35.5 µM [inhibitor, single point] and the Potency [16] was inconclusive: 13.3 µM [inhibitor, partial curve]. The Potency [15] was inconclusive: 26.6 µM [inhibitor, single point].

With `O=C(O)CNC(=O)CNC(=O)CNC(=O)CSC(=O)c1ccccc1` the Potency [3] was “inactive”, the Potency [6] was “inactive” and the Potency [15] was “inactive”.

In the case of `C[C@@H]1CN(CCCn2c3ccccc3c3ccccc32)C[C@H](C)N1`, the Potency [12] is reported as inconclusive: 1.33 µM [cytotoxic, full curve, poor fit], the Potency [2] is reported as inconclusive: 49 µM [cytotoxic, partial curve, poor fit] and the Potency [4] is reported as inconclusive: 11.9 µM [cytotoxic, partial curve]. The Potency [5] was inconclusive: 38.9 µM [cytotoxic, single point], the Potency [6] was “inactive” and the Potency [14] was inconclusive: 10 µM [inhibitor, partial curve, poor fit] and inconclusive: 25.1 µM [inhibitor, single point]. The Potency [7] was inconclusive: 8.91 µM [inhibitor, partial curve], the Potency [10] was inconclusive: 16.9 µM [inhibitor, single point] and the Potency [17] was inconclusive: 14.1 µM [cytotoxic, single point]. The Potency [18] was inconclusive: 31.6 µM [cytotoxic, single point] and the Potency [19] was inconclusive: 22.4 µM [cytotoxic, partial curve].

For `NCCOc1cc(C(=O)Nc2cc(OCCN)c3ccccc3n2)nc(C(=O)Nc2cc(OCCN)c3ccccc3n2)c1`, the Potency [18] was inconclusive: 22.4 µM [cytotoxic, partial curve, poor fit] and the Potency [19] was inconclusive: 22.4 µM [cytotoxic, partial curve, poor fit].

With `COc1cc(C(=O)NCc2ccc(OCCN(C)C)cc2)cc(OC)c1OC` the Potency [2] was “inactive”, the Potency [6] was “inactive” and the Potency [20] was “inactive”.

In the case of `C[C@H](N)C(=O)N[C@@H](C)C(=O)NC1[C@H]2CN(c3nc4c(cc3F)c(=O)c(C(=O)O)cn4-c3ccc(F)cc3F)C[C@@H]12` (stereo not given in full), the Potency [1] is reported as inconclusive: 26.6 µM [cytotoxic, single point], the Potency [2] is reported as inconclusive: 34.7 µM [cytotoxic, single point] and the Potency [3] is reported as inconclusive: 17.2 µM [cytotoxic, partial curve]. The Potency [4] was inconclusive: 18.8 µM [cytotoxic, single point], the Potency [5] was inconclusive: 27.6 µM [cytotoxic, single point] and the Potency [14] was inconclusive: 2.24 µM [inhibitor, full curve, poor fit]. For the same compound, the Potency [8] was inconclusive: 7.18 µM [inhibitor, full curve, poor fit], the Potency [9] was inconclusive: 10 µM [inhibitor, partial curve] and the Potency [16] was inconclusive: 4.22 µM [inhibitor, partial curve]. For the same compound, the Potency [15] was inconclusive: 21.1 µM [inhibitor, single point].

For `Cc1ccccc1N=Nc1ccc(N=Nc2c(O)ccc3ccccc23)c(C)c1`, the Potency [13] was “inactive”, the Potency [14] was inconclusive: 10 µM [inhibitor, full curve] and the Potency [20] was “inactive”. For the same compound, the Potency [10] was “inactive” and the Potency [11] was inconclusive: 7.94 µM [inhibitor, full curve].
